Experimental data published in PubChem BioAssay AID1240 (Sanford-Burnham Center for Chemical Genomics, 2008).
In all, about 50,000 compounds went through this assay and about 800 (1.6%) showed an effect of 50% or more. This is one part of the list.

What follows are compounds tested against Bcl-2-like protein 10 (Homo sapiens) (UniProt Q9HD36) (assay: TR3 peptide-Bcl-B binding displacers, biochemical primary FP assay, phenotype converters (AID 1240;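 note: 0% = Bcl-B with tracer peptide and DMSO and 100% = tracer peptide lacking Bcl-B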)). Conditions: GST-Bcl-B / FITC-TR3 peptide fluorescence polarization; stronger effect = higher value; compound at 3.75 mg/L.
Chain of UniProt Q9HD36 (Q9HD36 whole entry, looked up): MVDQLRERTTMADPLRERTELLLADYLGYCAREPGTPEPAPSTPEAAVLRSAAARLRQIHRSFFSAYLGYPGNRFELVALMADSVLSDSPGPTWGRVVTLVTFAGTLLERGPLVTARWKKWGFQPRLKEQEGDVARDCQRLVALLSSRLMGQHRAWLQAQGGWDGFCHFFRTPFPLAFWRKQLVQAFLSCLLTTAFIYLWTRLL
CC1CCC(CCOC(=O)C(C)(C)C)C1(C)C (stereo unspecified) gave a displacement of -3%. For CCc1ccc(CN2CCN(S(=O)(=O)c3ccc(Cl)cc3)CC2)cc1, the displacement was 4.7%. Work on O=C(Nc1nc2ccc3ccccc3c2s1)c1ccc(C(=O)c2ccccc2)cc1 yielded a displacement of -3.8%. In the case of O=C1OC(/C=C/c2ccccc2)=NC/1=C/c1cccc([N+](=O)[O-])c1, the displacement is reported as 98.4%. Work on CCN(CC)CCNC(=O)COc1ccccc1O yielded a displacement of 3.6%. With O=C1N=c2ccc([N+](=O)[O-])cc2=C1c1sc(=Nc2ccccc2)n(-c2ccccc2)c1O the displacement was 0.4%. Cc1cc(C)cc(NC(=O)C2CC3CCC2C3)c1 (stereo unspecified) was tested, and the displacement was -8.4%. CC(C)C12CN3CC(C(C)C)(CN(C1)C3c1c[nH]c3ccccc13)C2=O (stereo unspecified) was tested, and the displacement was 7%. With O=C1NC2(CCCCC2)Cc2ccccc21 the displacement was 7.4%. Clc1cccc(Cl)c1OCCN1CCOCC1 gave a displacement of 2.6%. In the case of Cc1ccc(C(=O)N/C(=C/c2cccc([N+](=O)[O-])c2)C(=O)Nc2c(C)n(C)n(-c3ccccc3)c2=O)cc1, the displacement is reported as -2.1%. In the case of O=C1CCCC2=C1C(c1cccnc1)Nc1ccc(C(=O)c3ccccc3)cc1N2 (stereo unspecified), the displacement is reported as -10.3%. Compound COc1cc([N+](=O)[O-])ccc1NC(=O)COc1ccc(Cl)cc1C has a displacement of 7.5%. In the case of O=C(Cn1c(C(=O)c2ccccc2)nc2ccccc21)c1ccccc1, the displacement is reported as 5.1%. O=c1cnnc(N/N=C/c2ccccc2[N+](=O)[O-])[nH]1 gave a displacement of 8.4%. For Cc1ccc(C(=O)CCNc2cccc(Br)c2)o1, the displacement was 10.6%. Cc1ccccc1OCC(=O)O/N=C(\N)Cc1ccc(Cl)cc1 was tested, and the displacement was -0.6%. With CCOc1cccc(-c2nc3cc(C)ccc3o2)c1 the displacement was 1.9%. For CC(CNC(=O)COc1cccc2ccccc12)CN(C)C (stereo unspecified), the displacement was -6%. O=C1NC(=O)/C(=C/c2c(F)cccc2Cl)S1 was tested, and the displacement was -0.3%. Compound FC(F)(F)c1ccccc1NC(=S)Nc1ccccc1 has a displacement of -1.7%. Cn1c(=O)c2c(ncn2CC(=O)NC(c2ccccc2)c2ccccc2)n(C)c1=O showed a displacement of 4.5%. Compound C=CCN1C(=O)/C(=C\c2cc(Cl)c(O)c(OCC)c2)C(=O)NC1=S has a displacement of -12.7%. Work on C=CCn1c(SCC(=O)c2cccs2)nc2sc3c(c2c1=O)CCCC3 yielded a displacement of 8.4%. In the case of COC(=O)c1ccc(/C=C2\SC(=Nc3ccc(F)cc3)NC2=O)cc1, the displacement is reported as 30.8%. Fc1ccc(NC(=S)N2CCN(Cc3ccc4c(c3)OCO4)CC2)cc1 showed a displacement of -4.5%. Cc1ccc(-c2nnc(-c3ccco3)o2)cc1 gave a displacement of -1%. Cc1cc2ncn(C(=O)c3ccc(-c4ccccc4)cc3)c2cc1C gave a displacement of 10.5%. Compound CC(C)(C)OC(=O)NNC(=O)c1cccc(Cl)c1 has a displacement of -9.4%. With COc1ccc(C2/C(=C(/O)c3ccc(C)cc3)C(=O)C(=O)N2CCCCCC(=O)O)cc1 (stereo unspecified) the displacement was -63.8%. For CCc1ccc2oc(-c3ccc(C)c(NS(=O)(=O)c4ccccc4)c3)nc2c1, the displacement was -4.7%. For CC1=NN(c2ccc(S(N)(=O)=O)cc2)C(=O)/C1=C\c1cccc([N+](=O)[O-])c1, the displacement was -0.4%. Cc1ccccc1N1C(=O)c2ccc(-c3nc4ccccc4c(=O)o3)cc2C1=O showed a displacement of -4.9%. For Cn1ccnc1SCc1ccc(C(=O)O)cc1, the displacement was -6.7%. For Cc1cc(Cl)ccc1NC(=O)c1ccc(Cl)cc1, the displacement was -5.1%. CN(C)CCCNC(=O)c1ccc2sc3cc(=O)c(N)cc-3nc2c1 showed a displacement of 44.6%. Work on Cc1ccc(C)c(NCc2ccncc2)c1 yielded a displacement of 0.2%. CCCN1CCC(=NNC(=O)c2ccccc2C)CC1 gave a displacement of 3%. O=C1CCCCCC1C1(O)C(=O)Nc2ccccc21 (stereo unspecified) was tested, and the displacement was 9.5%. With CCc1ccc(NC(=O)CN(c2ccc(Br)cc2)S(=O)(=O)c2ccccc2)cc1 the displacement was -7.5%. Compound CC1(C)CC(=O)C2=C(C1)Nc1ccccc1NC2c1ccc(-c2ccccc2)cc1 (stereo unspecified) has a displacement of 0%. O=C1CC(c2cccc(Br)c2)c2cc(Br)c3ccccc3c2N1 (stereo unspecified) gave a displacement of 11%. CCOc1ccc(N(CC(=O)N[C@@H]2CCCC[C@H]2O)S(C)(=O)=O)cc1 showed a displacement of 7.3%. Cc1ccc(-c2cc(C(=O)Nc3c(C)cccc3C)c3ccccc3n2)s1 was tested, and the displacement was 4.2%. CC(C)(C)c1ccc(S(=O)(=O)Nc2cc(C(N)=O)c(Cl)cc2Cl)cc1 was tested, and the displacement was 0.5%. CC(C)OP(=O)(OC(C)C)C(Nc1cccc([N+](=O)[O-])c1)c1cccc([N+](=O)[O-])c1 (stereo unspecified) gave a displacement of -17.9%. For CCCCOP(=O)(CC(=O)OC)CC(=O)OC, the displacement was 17.9%. Cc1cc(/C=C2/SC(=S)NC2=O)c(C)n1-c1cccc(Cl)c1 gave a displacement of -51.8%. COc1ccc(Oc2ccc(-n3c(C)cc(C=O)c3C)cc2)cc1 showed a displacement of 0.4%. With CC(C)Oc1ccc(-c2cc(C(=O)O)c3ccccc3n2)cc1 the displacement was -1.7%. Compound CCCCn1c(CN2C(=O)c3ccccc3C2=O)nc2ccccc2c1=O has a displacement of 10%. Compound O=C(CN1C(=O)/C(=C/c2ccccc2)SC1=S)NNC(=O)c1ccncc1 has a displacement of -3%. Work on CN=C(C)C1=C(O)C(C(=O)OC)C(C)(C)CC1=O (stereo unspecified) yielded a displacement of 6.2%. CCOc1cc(C(=S)N2CCOCC2)ccc1OC(=O)Cc1ccccc1 gave a displacement of 4.2%. In the case of Cc1cccc(OCC(=O)NCc2cccnc2)c1, the displacement is reported as -2.5%. COC(=O)c1cc(C(=O)N2CCc3ccccc3C2)cc([N+](=O)[O-])c1 was tested, and the displacement was 15.4%. Cc1cc(OCC(=O)Nc2sc3c(c2C(N)=O)CCC(C)C3)ccc1Cl (stereo unspecified) was tested, and the displacement was 2.8%. For C/C(CC(=O)Nc1cccc2c1CCCC2)=N\NC(=O)C(=O)NC1CCCCC1, the displacement was -14.9%. In the case of O=C1c2ccccc2C(=O)N1CCS(=O)(=O)NC12CC3CC(CC(C3)C1)C2, the displacement is reported as -3.7%. Cc1ccc(OCC(=O)Nc2ccccc2C(=O)O)c(Br)c1 showed a displacement of -4.5%. For COc1ccc(NC(=O)COc2cccc3ccccc23)cc1Cl, the displacement was 4.8%. With O=C(/C=C/c1cccc([N+](=O)[O-])c1)NCCCn1ccnc1 the displacement was -1.5%. COc1ccccc1OCCCc1c(C)n[nH]c1C showed a displacement of -9.3%. Cc1ccccc1C(=O)Nc1cc(C(=O)O)cc(C(=O)O)c1 showed a displacement of 3.3%. Compound Cc1ccc2c(c1)NC(c1ccccc1)C1=C(CC(C)(C)CC1=O)N2 (stereo unspecified) has a displacement of -3.1%. In the case of O=c1oc2c(-c3cccc(Cl)c3)cc(O)cc2s1, the displacement is reported as -0.7%. With O=Cc1cn(CCC(=O)O)c2ccccc12 the displacement was -10.1%. With O=C(c1ccc(F)cc1)N1CCN(C2C3CC4CC(C3)CC2C4)CC1 (stereo unspecified) the displacement was -13.3%. For COc1ccc2oc(=O)c(C(=O)Nc3c(C)n(C)n(-c4ccccc4)c3=O)cc2c1, the displacement was -3.9%. Work on CCCOC(=O)C1=C(C)NC2=C(C(=O)CC(c3ccccc3)C2)C1c1ccccc1Br (stereo unspecified) yielded a displacement of 0.1%. O=C(Nc1ccccc1C(=O)N/N=C/c1ccco1)c1ccccc1 showed a displacement of 46.3%. With CC(C)OC(=O)COc1ccc2c(-c3ccccc3)cc(=O)oc2c1 the displacement was 13.2%. With CCOc1ccc(-n2c(O)c(C=C3C=CC=N3)c(=O)[nH]c2=O)cc1 the displacement was 13.1%. Cc1ccc(-c2ccc(OC(=O)c3ccco3)cc2)cc1 was tested, and the displacement was 13.8%. With CCc1c(C#N)c(N)nc(SCC(=O)c2ccc(-c3ccccc3)cc2)c1C#N the displacement was -2.3%. Compound O=C(NC(=S)NCc1ccco1)c1ccc(Br)cc1 has a displacement of -7.3%. With O=c1ccnc2c1c(-c1ccccc1)nc1[nH]onc12 the displacement was 5.6%. With O=C(COc1ccc2ccccc2c1)Nc1ccc(Cl)cc1 the displacement was 7.8%. CCOC(=O)C(C)C(O)C(=O)OCC (stereo unspecified) showed a displacement of 5.2%. COc1ccc(Cl)cc1C(=O)Nc1nc(-c2ccc(C)cc2)cs1 showed a displacement of 1%. COc1cc2c(cc1OC)CN(c1ccc(C(=O)O)cc1)C(=O)C2 showed a displacement of -5.8%. Compound COc1cc(C(=S)N2CCOCC2)cc(I)c1O has a displacement of -6.4%. COC(=O)C1(S(=O)(=O)c2ccc(Cl)cc2)CCOCC1 showed a displacement of -0.3%. COC(=O)c1ccc(C2C(C(=O)OCC(C)C)=C(C)NC3=C2C(=O)CCC3)cc1 (stereo unspecified) gave a displacement of 5.4%. Cc1ccccc1C(=O)Nc1sc2c(c1C(=O)N1CCCC1)CCCCC2 gave a displacement of 17.5%. For CCOC(=O)C1=C(C)N=c2s/c(=C\c3cccc([N+](=O)[O-])c3)c(=O)n2C1c1cccc(OC)c1 (stereo unspecified), the displacement was 4.1%. CC(C)c1ccc(C2/C(=C(/O)c3ccccc3)C(=O)C(=O)N2CC2CCCO2)cc1 (stereo unspecified) gave a displacement of 1.1%. In the case of C=CCN1C(=O)/C(=C\c2ccc(-c3cccc([N+](=O)[O-])c3)o2)C(=O)NC1=S, the displacement is reported as 12.9%. In the case of CCCc1ccc(C(=O)N2c3ccccc3C(Nc3ccccc3)CC2C)cc1 (stereo unspecified), the displacement is reported as 12.9%. C=CCN(CC=C)C(=S)Nc1ccc2nc(-c3ccccc3)c(-c3ccccc3)nc2c1 showed a displacement of -6.6%. For Nc1cc(C(=O)c2ccc(Cl)c(N)c2)ccc1Cl, the displacement was -4.6%. CCOc1ccc(/C=C2/SC(=S)N(CN3CCOCC3)C2=O)cc1 gave a displacement of 8.8%. COC(=O)c1ccc(N2C(=O)CC(NCc3ccccc3)C2=O)cc1 (stereo unspecified) was tested, and the displacement was -6.6%. Cc1cc(OCCc2c(C)n[nH]c2C)ccc1Cl showed a displacement of 2.9%. COc1ccc2c(c1)-c1c(ssc1=Nc1ccc(S(=O)(=O)NC(C)=O)cc1)C(C)(C)N2 showed a displacement of -15%. CCOc1ccccc1NC(=O)C(=O)NCCCOC showed a displacement of 17.8%. O=C(Nc1ccccc1O)c1ccc2c(c1)OCCO2 gave a displacement of -1.6%. O=C(NCCCN1CCOCC1)/C(=C/c1cccs1)NC(=O)c1ccccc1 gave a displacement of 8.5%. Work on CCOC(=O)CC(=O)CSc1nc(C)c2cc(OCC)ccc2n1 yielded a displacement of 67.2%. COC(=O)c1c(C)oc2ccc(OC(=O)c3ccc([N+](=O)[O-])cc3)cc12 was tested, and the displacement was 8%. O=C(NC(=S)Nc1ccc2c(c1)-c1ccccc1C2)c1ccccc1 gave a displacement of 51.9%. CCOC(=O)c1ccc(Nc2nc3nonc3nc2NCc2ccco2)cc1 was tested, and the displacement was 2.3%. Work on CN1CCN(/N=C2\C(=O)Nc3ccccc32)CC1 yielded a displacement of 10.1%. In the case of CCCC1=NN(c2ccc([N+](=O)[O-])cc2)C(=O)/C1=C/c1cccc([N+](=O)[O-])c1, the displacement is reported as -10.5%. COc1cccc(NC(=O)/C(=C/c2ccccc2)c2ccccc2)c1 gave a displacement of 12.8%. COCCOC(=O)C1=C(C)NC(=O)NC1c1ccc(OCC(N)=O)cc1 (stereo unspecified) was tested, and the displacement was 7.7%. Cc1cccc(C)c1NC(=O)C1COc2ccccc2O1 (stereo unspecified) gave a displacement of 0.6%. Compound COC(=O)CSc1nc2ccc(N)cc2s1 has a displacement of 0.3%. COc1ccc(Br)cc1/C=N/NC(=O)CSc1nc2ccccc2n1C gave a displacement of -13.1%. With CCCCCCCNC1CC(=O)N(c2ccc(F)cc2)C1=O (stereo unspecified) the displacement was -10%. COc1ccccc1N1CCN(/N=C(/C)c2ccc(Br)cc2)CC1 was tested, and the displacement was -11.9%.
